Laboratory results taken from patent US9457081B2, “Combination therapy using c-Met inhibitor and beta-catenin inhibitor” (Samsung Electronics Co., Ltd., priority 2013, dated 2016).

Key:
Details in all cases: rank among the four antibodies huAbF46-H4-A1, -A2, -A3, -A5
[1] = target: T1, c-Met (Homo sapiens, UniProt P08581); experiment: Affinity for c-Met of the affinity-matured IgG antibodies; assay type: binding
[2] = system: Akt phosphorylation; experiment: Akt phosphorylation by the anti-c-Met antibodies; assay type: cell-based
[3] = target: T1, c-Met; experiment: c-Met degradation degree by the anti-c-Met antibodies; assay type: cell-based

T1 sequence (P08581 25-1390): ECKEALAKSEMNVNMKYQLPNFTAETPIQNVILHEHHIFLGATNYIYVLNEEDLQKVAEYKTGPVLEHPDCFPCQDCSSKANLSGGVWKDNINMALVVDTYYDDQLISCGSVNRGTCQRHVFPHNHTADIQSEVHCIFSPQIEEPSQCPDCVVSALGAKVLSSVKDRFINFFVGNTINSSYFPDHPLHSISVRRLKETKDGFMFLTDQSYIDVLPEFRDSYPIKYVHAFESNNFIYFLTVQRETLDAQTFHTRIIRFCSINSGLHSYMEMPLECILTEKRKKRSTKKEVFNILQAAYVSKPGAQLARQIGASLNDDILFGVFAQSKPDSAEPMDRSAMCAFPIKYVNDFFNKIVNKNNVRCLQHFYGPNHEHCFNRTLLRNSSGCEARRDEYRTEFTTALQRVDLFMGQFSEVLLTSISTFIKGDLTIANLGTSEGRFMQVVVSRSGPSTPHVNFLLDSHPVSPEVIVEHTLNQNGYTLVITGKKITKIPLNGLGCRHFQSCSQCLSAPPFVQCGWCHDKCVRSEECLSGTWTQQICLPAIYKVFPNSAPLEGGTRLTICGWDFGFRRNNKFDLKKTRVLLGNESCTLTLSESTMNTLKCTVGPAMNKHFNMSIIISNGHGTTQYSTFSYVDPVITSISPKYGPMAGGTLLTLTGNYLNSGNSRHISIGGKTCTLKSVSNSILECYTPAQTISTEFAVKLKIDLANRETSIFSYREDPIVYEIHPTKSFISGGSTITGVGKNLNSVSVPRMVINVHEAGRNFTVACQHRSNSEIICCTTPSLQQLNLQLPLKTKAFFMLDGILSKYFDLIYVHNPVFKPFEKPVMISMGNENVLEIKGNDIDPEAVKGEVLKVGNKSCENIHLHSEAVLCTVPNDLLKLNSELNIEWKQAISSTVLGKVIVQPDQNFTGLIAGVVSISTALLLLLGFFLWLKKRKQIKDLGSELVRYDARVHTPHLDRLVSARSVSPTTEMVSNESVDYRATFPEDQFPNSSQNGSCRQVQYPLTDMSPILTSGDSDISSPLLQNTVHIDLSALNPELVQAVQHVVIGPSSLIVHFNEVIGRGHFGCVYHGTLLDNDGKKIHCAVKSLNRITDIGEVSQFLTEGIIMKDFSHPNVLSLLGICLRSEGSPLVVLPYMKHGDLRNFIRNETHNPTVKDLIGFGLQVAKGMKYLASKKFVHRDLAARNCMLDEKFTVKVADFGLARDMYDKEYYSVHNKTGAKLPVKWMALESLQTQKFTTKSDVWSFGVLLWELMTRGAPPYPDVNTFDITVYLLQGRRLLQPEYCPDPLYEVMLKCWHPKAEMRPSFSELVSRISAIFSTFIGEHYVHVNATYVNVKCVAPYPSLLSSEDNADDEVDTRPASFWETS

B1: huAbF46-H4-A1: affinity-matured humanized anti-c-Met antibody, L3-1 origin (antibody)
heavy: EVQLVESGGGLVQPGGSLRLSCAASGFTFTDYYMSWVRQAPGKGLEWLGFIRNKANGYTTEYSASVKGRFTISRDNSKNTLYLQMNSLRAEDTAVYYCARDNWFAYWGQGTLVTVSSASTKGPSVFPLAPSSKSTSGGTAALGCLVKDYFPEPVTVSWNSGALTSGVHTFPAVLQSSGLYSLSSVVTVPSSSLGTQTYICNVNHKPSNTKVDKKVEPKSCDCH[human IgG1 Fc not given here]
light: DIQMTQSPSSLSASVGDRVTITCKSSQSLLASGNQNNYLAWHQQKPGKAPKMLIIWASTRVSGVPSRFSGSGSGTDFTLTISSLQPEDFATYYCQQSYSRPYTFGQGTKVEIKRTVAAPSVFIFPPSDEQLKSGTASVVCLLNNFYPREAKVQWKVDNALQSGNSQESVTEQDSKDSTYSLSSTLTLSKADYEKHKVYACEVTHQGLSSPVTKSFNRGEC
affinity for c-Met [1]: highest | Akt phosphorylation [2]: lowest | c-Met degradation degree [3]: lowest
